# Test results reported in PubChem BioAssay AID1476 (National Center for Advancing Translational Sciences (NCATS), 2009).
# The whole screen tested about 200,000 compounds, of which about 4,500 (2.2%) were called active. Inconclusive results, whose numbers are uncertain, are shown with a selection of clear calls. Calls come from the whole dose curve; as a rule, active = well fitted inhibition curve with a large enough effect; inconclusive = small, poorly fitted or top-dose-only effect, or effect the other way; inactive = flat fitted curve, though single readings scatter. Potencies of inconclusive entries are doubtful fits and often do not repeat.
# Molecular target: Cruzipain (Trypanosoma cruzi) (UniProt P25779)
# Experiment: qHTS Assay for Promiscuous and Specific Inhibitors of Cruzain (without detergent); note: nearly all actives have a fitted effect of over 40% in size;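 for max response, negative = inhibition: plate controls were enzyme without inhibitor for no effect and buffer without enzyme for full effect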
# Details: purified cruzain, Z-FR-AMC fluorescence, no detergent
# Method in brief: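 Purified cruzain at 1.5 nM, pre-incubated 15 min with compound at room temperature in 100 mM sodium acetate pH 5.5, 5 mM DTT, 0.00005% Triton X-100. Reaction started with 2 uM Z-FR-AMC; AMC fluorescence increase over 60 s gives rate.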
# Potency is the fitted concentration of half-maximal effect; tags give direction and shape of the fitted curve.
# Sequence of UniProt P25779 (P25779 whole entry, looked up): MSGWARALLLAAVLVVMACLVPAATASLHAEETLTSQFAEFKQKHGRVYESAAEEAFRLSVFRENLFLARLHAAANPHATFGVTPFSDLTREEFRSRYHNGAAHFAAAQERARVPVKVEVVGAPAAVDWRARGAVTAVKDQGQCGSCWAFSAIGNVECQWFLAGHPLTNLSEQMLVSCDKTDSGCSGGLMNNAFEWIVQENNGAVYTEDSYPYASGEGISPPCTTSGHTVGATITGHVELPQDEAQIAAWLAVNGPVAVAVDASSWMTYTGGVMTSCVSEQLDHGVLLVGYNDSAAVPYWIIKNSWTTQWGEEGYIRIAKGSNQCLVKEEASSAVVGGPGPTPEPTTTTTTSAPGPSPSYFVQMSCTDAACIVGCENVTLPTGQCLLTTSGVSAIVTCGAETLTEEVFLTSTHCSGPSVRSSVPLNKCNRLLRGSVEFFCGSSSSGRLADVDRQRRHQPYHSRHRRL
Compound,Potency,"max response, negative = inhibition"
CCn1c(COc2cccc(C)c2)nnc1SCC(=O)CC(=O)Nc1ccccc1OC,"inconclusive: 31.6 µM [activator, single point]",
COc1ccc(-n2cnnc2SCC(=O)c2ccc(S(=O)(=O)N3CCOCC3)cc2)cc1,"inconclusive: 39.8 µM [activator, single point]",
Cc1cc2cc(CNC(=O)c3cccs3)ccc2n1C,"inconclusive: 25.1 µM [inhibitor, single point]",
Cc1ccccc1C(=O)c1cccn1CC(=O)NCc1ccccc1,"inconclusive: 0.199 µM [inhibitor, single point]",
Cc1ccc(C(=O)N/C(=C/c2ccco2)C(=O)OCN2C(=O)c3ccccc3C2=O)cc1,active: 0.398 µM,
CC(/C=C(\NC(=O)c1ccccc1)C(=O)N=Nc1c(O)[nH]c2ccc(C)cc12)=C\c1ccccc1,active: 25.1 µM,
Cc1cccc(C2=NN(c3ccccc3)[C@@H](C(=O)N3CCOC3=O)[C@@H]2c2ccc(Cl)cc2)c1,active: 22.4 µM,
O=C(NCc1ccccn1)c1cn(-c2ccccc2)nc1-c1ccc(Cl)cc1,"inconclusive: 31.6 µM [activator, single point]",
Cc1ccc(-n2nnnc2CNC(=O)C(C)(C)C)cc1C,,inactive: 7.02%
Cc1ccccc1CNC(=O)c1cnc2sc(N3CCOCC3)nn2c1=O,,inactive: 3.94%
CCCCOC(=O)c1ccc(NC(c2ccc(C)cc2)P(=O)(OC)OC)cc1 (stereo unspecified),"inconclusive: 20 µM [activator, partial curve]",
COc1cccc(CNC(=O)C2CCCN(c3nn4c(=O)cc(C)nc4s3)C2)c1 (stereo unspecified),,inactive: -6.86%
Cc1nn(CCC#N)c2c1P(=S)(N1CCCC1)OC(c1ccc(F)cc1)=N2 (stereo unspecified),"inconclusive: 39.8 µM [activator, single point]",
CCc1ccc(-c2nc(CSCC(=O)N3CCN(c4ncccn4)CC3)c(C)o2)cc1,"inconclusive: 31.6 µM [activator, partial curve]",
Cc1cc(N2CCN(c3ccccc3)CC2)n2cc(-c3ccccc3)nc2n1,"inconclusive: 31.6 µM [activator, single point]",
O=C(NCCOc1cccc(Oc2ccccc2)c1)c1cc(-n2cnnc2)ccc1Cl,"inconclusive: 31.6 µM [activator, single point]",
COCc1cc(=O)n2c([nH]c3ccccc32)c1C#N,"inconclusive: 39.8 µM [activator, single point]",
Nc1cc(C(=O)c2cccs2)ccc1Cl,"inconclusive: 7.94 µM [inhibitor, full curve, poor fit]",
CCc1ccc(NC(=O)c2ccc3c(O)c(S(=O)(=O)c4ccc(Cl)cc4)c(=O)[nH]c3c2)cc1,,inactive: -4.82%
CCOC(=O)c1ccc(N/C=C/C(=O)c2ccc(OC)c(OC)c2)cc1,"inconclusive: 31.6 µM [activator, single point]",
O=C(Nc1ccc(Br)cc1F)C1CCN(c2nnc(-n3cccc3)s2)CC1,"inconclusive: 15.8 µM [inhibitor, partial curve, poor fit]",

Compound,Potency,"max response, negative = inhibition"
CCOc1ccc(-c2nc(-c3ccc(OC)cc3)no2)cc1OCC,"inconclusive: 31.6 µM [activator, single point]",
CC(=O)N1CCc2cc(S(=O)(=O)NC(CC(C)C)C(=O)Nc3ccc4c(c3)OCCO4)ccc21 (stereo unspecified),"inconclusive: 31.6 µM [activator, single point]",
Cc1cc(C)c(NC(=O)Cn2c(=O)n(CC(=O)NCc3ccccc3Cl)c(=O)c3sccc32)c(C)c1,,inactive: -5.29%
COc1ccccc1NS(=O)(=O)c1cc(NC(=O)CNC(=O)c2cc(C)cc(C)c2)ccc1C,"inconclusive: 39.8 µM [inhibitor, single point]",
O=C(COc1ncnc2ccccc12)N1CCN(S(=O)(=O)c2ccc(Cl)cc2)CC1,"inconclusive: 31.6 µM [activator, single point]",
CC(C)(C)c1ccc(NC(=O)C2CCCN(c3cnccn3)C2)cc1 (stereo unspecified),"inconclusive: 39.8 µM [activator, single point]",
O=C(O)CCCC(=O)N1CCc2cc(S(=O)(=O)N3CCc4ccccc43)ccc21,"inconclusive: 39.8 µM [activator, single point]",
O=C(Oc1ccc([N+](=O)[O-])cc1)c1ccc(Cl)c(S(=O)(=O)N2CCCCC2)c1,"inconclusive: 39.8 µM [inhibitor, single point]",
CCNC(=O)COc1cccc2ccccc12,"inconclusive: 15.8 µM [inhibitor, single point]",
Cc1nc2cnc(N3CCNCC3)nc2n(CCC#N)c1=O,"inconclusive: 31.6 µM [inhibitor, single point]",
CCCNC(=O)c1c(N)n(-c2ccc3c(c2)OCO3)c2nc3ccccc3nc12,"inconclusive: 39.8 µM [inhibitor, single point]",
O=C(OCc1ccccc1)N1CCOCCOCCN(C(=O)OCc2ccccc2)CCOCCOCC1,"inconclusive: 10 µM [activator, partial curve]",
O=C(Cc1ccccc1)NCCC1=CCCCC1,,inactive: -9.11%
Cc1ccc(CNC(=O)CCCCCn2c(=O)[nH]c3ccccc3c2=O)cc1,,inactive: -7.72%
COc1cc(/C=C\C(=O)NCc2ccc3c(c2)cc(C)n3C)cc(OC)c1OC,"inconclusive: 39.8 µM [activator, single point]",
Cc1ccc(C)c([C@@H]2NC(=O)c3ccccc3N2)c1,,inactive: -0.0855%
CCOC(=O)CNC(=O)O[C@@H]1C(=O)c2ccc(OC)cc2O[C@H]1c1ccc2c(c1)OCO2,,inactive: 8.15%
Cc1nc(C)c(-c2ccc(SCC(=O)Nc3ccc(Br)cc3)nn2)s1,"inconclusive: 31.6 µM [activator, single point]",
C=CCn1c(SCc2ccc(Cl)cc2)nc2cc(C(=O)N3CCC(C(N)=O)CC3)ccc2c1=O,"inconclusive: 25.1 µM [activator, single point]",
O=C(Nc1ccc(O)c2c(=O)cc(-c3ccccc3Cl)oc12)c1ccc(Br)cc1,"inconclusive: 28.2 µM [inhibitor, single point]",
